The source gives no read counts; variants with many changes may rest on few reads.
B1: LINE1-mini (parent)
chain: GGCAGAGCUCAACACAGCGUGGCAAAGUGGCUGUGGCUAGACUGCC

Variants of: B1
Assay: self-cleavage, relative activity (ratio to wild type); higher = more cleavage; in vitro, sequencing; the parent is a self-cleaving ribozyme

| Variant | self-cleavage |
| --- | --- |
| A6G A26G U38A | 0.03 |
| A6G U34A G36C C37U | 0.01 |
| A6G C15A G22C G30U | 0.05 |
| A6U C8U C18U G36A C42G | 0.44 |
| A6U C8A G30U | 0.48 |
| A6U C23G G36A | 0.19 |
| G7A A12C C13A | 0.04 |
| A6U U9G A26G U32G | 0.04 |
| A6G A26C G35A G44A | 0.14 |
| A6U C13A C23U C46A | 0.21 |
| A6G U38C A41C | 0.02 |
| A6G U38C A41U | 0.06 |
| A6U G19U U38C | 0.13 |
| G7A A11G C31U | 0.01 |
| A6U A39C C42U U43A | 0.01 |
| A6U A11G U38C | 0.02 |
| A6U A25G A39C | 0.51 |
| A6G C15G G35C C37A | 0.01 |
| A6G C10G A12G G17U | 0.03 |
| A6U C10A U28A A39C | 0.01 |
| A6G C15A A41U U43C | 0.02 |
| A6G C8A A26C | 0.13 |
| A6G U20C G22A G33A | 0.03 |
| A6U C8G G30C U38C | 0.03 |

| Variant | self-cleavage |
| --- | --- |
| A6U G7A C10A G22U G29C | 0.03 |
| A6U C10U C13U G27C | 0.05 |
| A6U G17C U28C A39C | 0.03 |
| G7A A11G G19A C23G C31A | 0.01 |
| A6U A12G G19C U20C A24C C37G | 0.01 |
| A6U C13U A14U G17A G21C C31G | 0.02 |
| A6G U20C C37A | 0.03 |
| A6U A14C G30U | 0.04 |
| A6G U20C G40U | 0.05 |
| A6U U9A A14G G33A A39C G40U | 0.12 |
| A6G U32A C37G G44C | 0.01 |
| A6G G30A C37A G40A | 0.13 |
| A6U G7U A26G U28C C46A | 0.11 |
| A6U C10A C23G A26U U32C C37G | 0.02 |
| A6G G19U C31G | 0.02 |
| A6G G17C U32G | 0.02 |
| A6G C13U G21U G27U G29U C37U | 0.01 |
| G7A A11G C13U A16U U28G U38A | 0.06 |
| A6G C23G G40U | 0.04 |
| A6U C18U G29A U38G | 0.02 |
| A6U C8G G29A C31A | 0.04 |
| A6U C8U A11U U20G | 0.02 |
| A6G G22U C42A | 0.11 |
| A6G C10A A12C C31U G35U | 0.03 |

| Variant | self-cleavage |
| --- | --- |
| A6U G21A A41G | 2.53 |
| A6G G21C U34A G40A | 0.03 |
| A6U C18G A25U | 0.17 |
| A6U G22U C45U | 2.77 |
| A6G C13G U32C C42G G44U | 0.01 |
| A6U G7U U9C U20C G35U | 0.05 |
| A6U U20A U32A | 0.05 |
| A6G C8G U38C | 0.09 |
| A6U C23U U38A C46G | 0.17 |
| A6U C8A U28A C31G | 0.05 |
| A6U C8U G17U | 0.12 |
| A6G U9C U32A | 0.01 |
| A6G C15G U20A U34G G40U C45U | 0 |
| A6G G27U G33U U34G | 0.02 |
| A6U G21U G30A | 0.78 |
| A6U C8A C10U A11G | 0.04 |
| A6U A11C A14U A24U G36A G40U | 0 |
| A6G C15U G29C G36C | 0.27 |
| A6G G29U G35U C37U | 0.01 |
| A6U C13U A26C C37A A39U | 0.26 |
| A6U G22A U34G A39G G40U | 0.04 |
| A6G A16U C18A G36A | 0.04 |
| A6U G21U G22C | 0.56 |
| A6G C18G G22A | 0.04 |

| Variant | self-cleavage |
| --- | --- |
| A6U C13G G27A | 0.08 |
| G7A A11C U20A G30C U32A C37A | 0 |
| A6U A12C C18U C31A | 0.01 |
| A6G U9G C42G | 0.06 |
| A6U G22U C23A G27U G29U G33U | 0.12 |
| A6U A12G U32A | 0.11 |
| A6G G22A U34C G36C A41C C45A | 0 |
| A6G C13U G22C | 0.2 |
| A6U G7C A11U | 0.04 |
| A6U C18U C46A | 0.42 |
| A6G G7A G19C G29C G30U C31G G33C U34C G44A | 0.04 |
| A6U C18A G22A A26C A41G | 1.45 |
| A6G G29U G44C | 0.14 |
| A6G U20G A41C C42A | 0.01 |
| A6G G33C C45U | 0.02 |
| A6G C8A C15U | 0.16 |
| A6U A16U C18U C37G U38A | 0.05 |
| A6G G22A A39G | 0.02 |
| A6G G22A A39C | 0.31 |
| A6U G21A A24U U32C U38C | 0.37 |
| A6U U20G U34A G35C | 0.03 |
| A6U A14G G27U | 0.88 |
| A6G C8G C15A G21A | 0.07 |
| A6U C15G G21U U32C | 0.02 |

| Variant | self-cleavage |
| --- | --- |
| A6U A14U G27A A41C C46A | 0.04 |
| A6G C8G G22A | 0.07 |
| A6U G7C C15A | 0.21 |
| A6G C18G G19U G30A G40A | 0.07 |
| A6U C18A G21U U43C G44C C46G | 0.06 |
| A6G A25U U28G C31A U34G | 0.01 |
| A6U G19C G30C G35A | 0.11 |
| A6G G7C U38G | 0.03 |
| A6G C10A A16C G17A A26G | 0 |
| A6U C15G C42A | 0.38 |
| A6G G17C A41C C46A | 0.1 |
| A6U G30U A41U | 0.1 |
| A6U G27U A41G | 0.48 |
| A6U U9C G19A | 0.01 |
| A6G C13U U20C C45U | 0.04 |
| A6G C18A C23A | 0.16 |
| G7A A11G A12G | 0.02 |
| A6G C10U G27C | 0.01 |
| A6U C10G G22C C46G | 0.01 |
| A6U G21A G29A | 0.71 |
| A6U C13A C15G | 0.35 |
| A6U G7U C15G G17U C18G | 0.07 |
| A6U C10G C13U | 0.01 |
| A6G G21U C37A U38G | 0.02 |

| Variant | self-cleavage |
| --- | --- |
| A6G A26C A39G | 0 |
| A6U C10A A41U C42A | 0.05 |
| A6U C31U A39U | 0.03 |
| A6G C15U C37U U38C | 0.1 |
| A6U A12C G30A C31G C45G | 0 |
| A6U G7A C8G G19U G27U | 0.04 |
| A6U U9C A24G | 0.05 |
| A6U A16U G27C U32C G40C | 0.02 |
| A6U A11C U43A | 0.03 |
| A6U C23A G33A | 0.43 |
| A6G C13A G17U G27U | 0.03 |
| A6G C15A G17U A39C | 0.05 |
| A6G C23A U28A G30U C31U G33U A41U C46G | 0.03 |
| A6U A41G U43A C46A | 0.64 |
| A6U C23U A26U | 0.74 |
| G7A A11U A12U G44A | 0.02 |
| A6G A26U G33A | 0.04 |
| A6G G17C G44U | 0.05 |
| A6G C13G G22U C46A | 0.01 |
| A6U C13U G17A | 0.01 |
| A6G C15U C46G | 0.03 |
| A6U U9A G17C | 0.11 |
| A6U A11G A26G U38G G44U | 0.02 |
| A6G A24C U28A G36U U38A | 0.01 |

| Variant | self-cleavage |
| --- | --- |
| A6G G21A G44U | 0.21 |
| A6G C8G C18A U38C | 0.04 |
| A6G C8A C18A G35A | 0.14 |
| A6U G36A G44A | 0.04 |
| A6G C8U A11C A16U G35C | 0.01 |
| A6G G17C C23G G36A | 0.02 |
| A6U G17C U38A C45U | 0.07 |
| A6G A39C A41U | 0.08 |
| A6U G27C U28C | 0.38 |
| A6G U32G A39C | 0.09 |
| A6U G19C G22A G27A G36A G44C | 0.06 |
| A6G G21U U43G | 0.94 |
| A6G C10A G17A G21U G40C | 0.01 |
| A6G C31U C42A | 0.03 |
| A6U U9A G29U U32G G33A | 0.32 |
| G7A A11C A26G C31G G35U C46U | 0.01 |
| A6U G21U G40C | 0.05 |
| A6U A12C C46A | 0.01 |
| A6G G7A C15G G21C U32G | 0.04 |
| A6G G33A C42A G44A | 0.14 |
| A6G C8A G36C | 0.24 |
| A6U C10G U34G C37G G40C A41C G44A | 0.01 |
| A6U C15U A25G C42A | 0.11 |

Source: the RNAGym collection of RNA variant scans (doi:10.7554/elife.90254)
